In the RNAGym collection of RNA variant scans (doi:10.7554/elife.90254):
Read counts are not given, so values of variants with three or more changes are uncertain.

B1: LINE1-mini (parent)
chain: GGCAGAGCUCAACACAGCGUGGCAAAGUGGCUGUGGCUAGACUGCC

Variants of: B1
Test: self-cleavage, relative activity (ratio to wild type); higher = more cleavage; in vitro, sequencing; the parent is a self-cleaving ribozyme

Variant	self-cleavage
GGCAGAGAUGAACACAGCGUGGCAAAGUGGCUGUGGGUAGACUGAC	0.01
GGCAGAGCUCAACACAGCGUGGCAACGUCGCUCUGGCUAGACUGCC	0.47
GGCGGAGCUCAACACAGCGAGGCAAAGUGGCUGUGGCUAGACUGGC	0.4
GGCAGAGAUGAACAAAACGUGCCAAAGUGUAUGUGGCUAGACUGGC	0.02
GGCAUAGCUCAACACAGCGUGACAAAGUGGCUGUAGCUAGACUGCA	0.05
GGCAGAGCUCAACAUAGCGGGGCAAAGAGGCUGUGGCUAGACUGCC	0.82
GGCAGAGCUCAACACAGCGUGGCAAAGUGGCUAUGUCUGGACUGCC	0.02
GGCAGAGCUCAACACAGCGUGGCCAAGCGGCUGAGGCUAUACUGCC	0.02
GGCAGAGGUCAACAGAGCGUGGCAAAGUGUCUGUGGCUAGACUGCC	0.01
GGCAGAGCUCAACACAGCAUGGCAAAGUUGCUGUGGCUAUACUGCC	0.04
GGCAGAGCUUAACACAGCGUGGCAAAGUGGGUCUGGCGAGACUGCC	0.01
GACAGAGCUCAACACACCGUGGCAAAGUGGCUGGGGCUAGACUGCC	0.11
GGCUGAGCUAAACCCAGCGUGGAAAAUGGGCUGUGGCUAGAGUGCC	0.01
GGCAGAGCUCAAUACAGCGUCGCAAAGUGGUUGUGGCUAGACUGCC	0.04
GCAAGAGCUAAACACGGCGUGGCAAAGUGGCUGGGGCUAGACUGCC	0.02
GGCAGAGCUCAACACAGCGUGCCAAAGUGGCUGUGGAUAGAAUGCC	0.04
GGCAGAGCCCAACACAGCGUGGCAAAGUUGCUGUCGCUGGACUGCC	0.02
GGAGGAGCUCAACACAACGUGGCAAAGUGGCUGUGGCUAGACUGCC	0.12
GGCAGAGCUCAACAUAGCGUGGCAAUGUGGCUGUGUCUAGACUGCC	0.09

Variant	self-cleavage
GGCAGUGCUCAACACAGCGUGCCAAAGUGGAUGUGGCUAGACUGCC	0.14
GGCAGAGUUCAACACAUCGUGGCAAAGUGGCUGUGGCUAGACUGCA	0.03
GGCAGAGCUCAACACAGCGCGGCAAAGUGGCUCUGGCUAGAUUGCC	0.02
GGCAUAGCUCAACCCAGCGAGGCUAAGUGGCUGUGGCUAGACUGCC	0.01
CGCAGAGCACAACACAGCGUGGCAAAAUGCCUGUGGCUAGACUGCC	0.11
GGCAGCGCUCAAUACAACGUGGCAACGUGGCUGUGGCUAUACUGCC	0.61
GGCAGAGCUUAACACAGCGUGGCAAAGUGGCUGUGUAUGGCCUGCC	0
GGCGGAGCUCCACACAGCGUGCCAAAGUGACUGUGUCUAGACCUAC	0
UGCGGAGCUCAACACGGCGUGGCAAAGUGGCUGAGGCUAGACUGCC	0.02
GGUAGAGCUCAACACAGCGGGGCAAAGUGGCUGUGGCUAGACUGGC	0.08
GGCAGAGCUCAACACAGCGUAGCAAGGUGGCUGUGGCAAGACUGCC	0.87
GGCAGAGGACAACACAGCCUGGCAAAGUAGCUGUGGCUGGACAGCC	0.09
GGCAGAGCUGGACACAGCCUGGCAAAGUGGCAGUGGCUAGACUGCC	0.01
GGCAGAGCUCAGCACAGCGUGGCAAAGUGGCUACGGCUAGAAUGCC	0.17
GGCAGAGCUCAGGACAGCGUGGCAAAGUGGCUGUGGCUACACUGAG	0.02
GGCAGAGCACAACACAGCGUGGCACAGUGUCUGGGGCUAGACUGCC	0.04
GGCAGAGCUCAACACAGCCCGGCAAAGUGCCUGUGGUUAGACUGCC	0
GGCAGAGCUCAACACAGCGUGGGAAAGUGGCUGUGCCUAGACUGGC	0.03
GGUAGAGCUUAACACAGCUUGGCAAAGUGGCUGUGGCUAGACUGCC	0.12

Variant	self-cleavage
CGCAGAGCUAAAGACAGCGUGGCAAAGUGGCUGUGGCUAGACUGCC	0
GGCAGACCUCAGCACAGCGUGGAAAAGUGACUGUGUCUAGACUGCC	0.03
GGCACAGCUCAACACAGCGUGGUACAGUGGAUGUGGCAAGACUGCC	0.03
GCCAGAGCUCAACACAGCGUGGCAAAGUGGCUUUAGCUAGACUGCC	0.03
GGCAGUGCCCACCACAGCGUGGCAAAGUGGCAGUGGUUAGACUGCC	0.02
GGCAGAUCUCAACACAGCGUAGAAAAGUGGCUGGGGCUAGACUGAC	0.09
GGCAAAGGUCAAAACAGCGUGGCAAAGUGGCUGUGGCUAUACUGCG	0.11
GGCAGAGCUCAACACAGCGUGGCAAAGUGGCUGUGGCUUGACAACC	0.09
GGCAGAGCCCGAAACAGCGUGGCAAAGUUGCUGUGGCUUGAAUGCC	0.01
GACAGAGCUCAACACAGCAUGGCAAGGUGGCUGUGGCUAGACUGCC	0.95
GGCAGAGCUAAACACAGCGUGGCAGAGCGGCUGUGGCUAGAGUGCC	0.01
GGCAGAGCACAACAAAGCGUGGCAAAGUGACUGUGUCUAGCCUGCC	0.16
GGCAGAACUCAACACAGCGUGGGAAAAUGGCUGUGGCUAGACUGCC	0.04
GGCCGAGCUAAUCACAGCGUGGCAAAGUGCCUGUGGCUAGGCUGCC	0.03
GGCAGAGUUCAACACAGCGUGGUCAAGUGGCUGAGGCUAGACUGCC	0.05
GGCAGAGUGCAACACAGCGUUGCAAAGUGGCUGUGGCUAGACUGCC	0.02
GGCAGAGCUCAAGACAGCGUGGCAAUGGGGCUGUGGCUAGACAGCC	0.02
GGCAGAGCUCCACAUUGCGUGGCUAAGUGGCUGUAGCUAGACUGCC	0.01
